± gives the standard deviation of the averaged measurements. Whole data set: some 33,000 sequences, median “E-score (dimensionless, -0.5 to 0.5)” near -0.049, cut for the highest 2% near 0.37. This is one part of the list.

This assay relates to T1, PmTbr T-box DNA-binding domain (GST fusion).
T1 sequence: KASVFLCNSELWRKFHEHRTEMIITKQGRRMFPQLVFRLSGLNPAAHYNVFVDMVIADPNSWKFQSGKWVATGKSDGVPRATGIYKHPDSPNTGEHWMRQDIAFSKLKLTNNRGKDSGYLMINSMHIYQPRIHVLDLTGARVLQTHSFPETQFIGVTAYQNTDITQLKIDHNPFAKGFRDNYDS
The assay is described as follows: PBM E-score of 8-mer (E-score (dimensionless, -0.5 to 0.5)); Tbr is Tbrain of the sea star Patiria miniata (Pm) or the sea urchin Strongylocentrotus purpuratus (Sp); higher = stronger binding preference; most listed sequences are background and not binding sites. To be noted: the construct has about 5 more residues each side. The method, boiled down: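 Expression of GST-fused Tbr T-box DNA-binding domains, each holding the full T-box plus roughly five flanking residues, was carried out in BL21 E. coli at 20 °C, with purification by glutathione affinity chromatography. Universal Agilent arrays made double-stranded by primer extension were incubated with the protein at 200 nM in PBS (pH 7.5), then scanned and quantified. All ungapped 8-mers were scored from probe intensities, and each received an enrichment E-score from the Universal PBM Analysis Suite, averaged over duplicate arrays.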
With ACGAGCTC, the “PBM E-score of 8-mer” value was -0.189 ± 0.081.
The same measure for GATACCAC: -0.0238 ± 0.015; for TGTCTGAA: 0.182 ± 0.0081; for GGGATACC: -0.262 ± 0.064.
On to ATAGTGTA, for which the “PBM E-score of 8-mer” value turned out to be 0.0192 ± 0.0016.
On to CACAAGAA, for which the “PBM E-score of 8-mer” value is -0.123 ± 0.0027.
In the case of AGTTTTCA, the “PBM E-score of 8-mer” value was -0.00473 ± 0.12.
As to AAGCTTCT, the “PBM E-score of 8-mer” value was -0.235 ± 0.045.
As to AGGATGGG, the “PBM E-score of 8-mer” value was -0.294 ± 0.02.
The same measure for AAGCAAAC: -0.0933 ± 0.0052; for AGTAACCG: -0.133 ± 0.011; for CGTTGGAA: -0.16 ± 0.043.
For AACATTGC, the “PBM E-score of 8-mer” value was 0.00147 ± 0.078.
On to CCTCCCCA, for which the “PBM E-score of 8-mer” value is -0.0174 ± 0.029.
The same measure for AACTCAGC: -0.0823 ± 0.044; for CGTAGGGA: -0.146 ± 0.029; for CAATGAAA: -0.144 ± 0.016.
The same measure for ACCATTCC: -0.166 ± 0.044.
Regarding ACGGACAG, the “PBM E-score of 8-mer” value is -0.0235 ± 0.037.
The value for AAAGAACG was 0.024 ± 0.12.
The same measure for CTTTGTAA: -0.11 ± 0.028; for AGCAAGGG: -0.0741 ± 0.017; for GAGCCGGA: -0.323 ± 0.056.
Take AACGTACC: the “PBM E-score of 8-mer” value was -0.3161 ± 0.0024.
The same measure for CGCACATC: 0.298 ± 0.055; for CTCTCGTC: 0.0265 ± 0.033; for AAGGAACA: -0.118 ± 0.0046.
The same measure for AATGGCCG: -0.102 ± 0.016; for ATATCGTG: -0.0273 ± 0.033; for GAAGTGCC: 0.263 ± 0.019.
The same measure for GGGATTAC: -0.237 ± 0.013; for ATTCGGCC: -0.0926 ± 0.031; for GTCATCCA: -0.0697 ± 0.046.
TATGCATA: the “PBM E-score of 8-mer” value is -0.225 ± 0.13.
The same measure for ACTTTCCA: 0.132 ± 0.068; for CATTTAGA: -0.0146 ± 0.053.
The same measure for CTCAGAGA: -0.262 ± 0.012; for TGGTTAAA: -0.0566 ± 0.039; for GTGAATAA: 0.232 ± 0.034.
With AGGACCCT, the “PBM E-score of 8-mer” value was -0.212 ± 0.034.
As to CGTAAAAA, the “PBM E-score of 8-mer” value was found to be 0.0578 ± 0.11.
The same measure for AGACACAA: 0.109 ± 0.045; for ATGCTTTG: 0.059 ± 0.0019.
The same measure for ATAATTAT: -0.253 ± 0.067; for ACCTTTCT: 0.0952 ± 0.074.
The same measure for ATAAATGC: -0.0598 ± 0.0058; for CTTGTGCC: -0.0904 ± 0.087; for CCTCTACC: -0.098 ± 0.056.
Consider ACAGAGGG, for which the “PBM E-score of 8-mer” value is -0.0884 ± 0.035.
The same measure for ATCAACCG: -0.152 ± 0.025.
The value for CCCCAGGC was -0.14 ± 0.032; that for ATTGTATC was 0.0415 ± 0.056; that for CTCACGGA was 0.101 ± 0.029.
With ACACTGCC, the “PBM E-score of 8-mer” value was determined as 0.0607 ± 0.029.
Regarding ATTGGGAC, the “PBM E-score of 8-mer” value was -0.1674 ± 0.0014.
The same measure for ATCCCACA: 0.225 ± 0.0026; for ATTCAGCC: -0.17 ± 0.0028.
The same measure for ACGGGGTC: -0.11 ± 0.008; for ACGGCGCA: -0.00829 ± 0.17; for CGAAAGAC: -0.0547 ± 0.025.
The value for GGTGTAAC was 0.363 ± 0.027; that for ACATGAGG was 0.00911 ± 0.069.
Consider CATTAGTC, for which the “PBM E-score of 8-mer” value was -0.315 ± 0.087.
The value for ACCGTTGG was 0.145 ± 0.016.
On to CTTTTACA, for which the “PBM E-score of 8-mer” value turned out to be 0.169 ± 0.025.
The value for GCAGGCCA was -0.254 ± 0.083; that for AGGGTCTA was -0.0889 ± 0.0069.
The same measure for GAATATGA: -0.0756 ± 0.03; for GAAAGAGC: 0.0399 ± 0.044; for CCCAAACG: -0.119 ± 0.045.
The same measure for CCCACGGC: 0.057 ± 0.0049; for ATGCACGG: -0.169 ± 0.018; for CGCTTCAG: -0.0405 ± 0.068.
Take GCACCTCA: the “PBM E-score of 8-mer” value worked out at 0.35 ± 0.037.
With CATCTTAA, the “PBM E-score of 8-mer” value is 0.043 ± 0.13.
The value for AAATGACG was 0.0901 ± 0.0066; that for CGAGGTAG was -0.11 ± 0.044.
The same measure for AACCTGAG: 0.0264 ± 0.17.
The same measure for CTCAACGC: 0.0473 ± 0.082; for AGTGCATC: -0.183 ± 0.14; for ACAACCCA: 0.0479 ± 0.054.
Consider AAGGCGGA, for which the “PBM E-score of 8-mer” value is -0.00558 ± 0.018.
The same measure for CGTCGACG: 0.0145 ± 0.048; for GTAGTTGA: 0.0256 ± 0.03; for AAGGGAGG: -0.2389 ± 0.0022.
The value for ACGTTATA was 0.0261 ± 0.051.
